Measurements from patent US20260232828A1, “LIGAND-CYTOTOXICITY DRUG CONJUGATES AND PHARMACEUTICAL USES THEREOF” (HANSOH BIO LLC, priority 2023, published 2026).

How the values were obtained:
[1] = system: CDH17 positive cell line AsPC1, GP2d and CDH17 negative cell line SW480; assay: Flow cytometry binding of hybridoma supernatants to CDH17 expressing cancer cells; design: species or system human; conditions: undiluted hybridoma supernatant, in words
Experimental: Hybridoma supernatants were subjected to binding tests on CDH17 positive cell line AsPC1 (ATCC, CRL-1682), GP2d (Creative bioarray, CSC-J9456), and CDH17 negative cell line SW480 (ATCC, CCL-228) using flow cytometry analysis. Briefly, 50 μL of cells in cell staining buffer (2×10^6 cells/mL) was mixed with 50 μL undiluted supernatants. The mixture was incubated on ice for 1 hour and then washed with ice-cold staining buffer twice. The cells were subsequently stained with 50 μL of PE labeled secondary antibody (1:250 dilution, Biolegend, Cat #405307) for 20 min. After washing by staining buffer and fixing by 4% PFA, cells were analyzed by flow cytometry.
A purified anti-human CDH17 antibody was used as a positive control (Sino Biological, Cat #11360-MM02). A purified mouse IgG1 antibody was used as isotype control (Biolegend, Cat #400102).

[2] = molecular target: BSA (Bos taurus, UniProt P02769); assay: ELISA binding of hybridoma clones to BSA (specificity control); conditions: hybridoma supernatant; plate coated with BSA
Chain of BSA (P02769 25-607): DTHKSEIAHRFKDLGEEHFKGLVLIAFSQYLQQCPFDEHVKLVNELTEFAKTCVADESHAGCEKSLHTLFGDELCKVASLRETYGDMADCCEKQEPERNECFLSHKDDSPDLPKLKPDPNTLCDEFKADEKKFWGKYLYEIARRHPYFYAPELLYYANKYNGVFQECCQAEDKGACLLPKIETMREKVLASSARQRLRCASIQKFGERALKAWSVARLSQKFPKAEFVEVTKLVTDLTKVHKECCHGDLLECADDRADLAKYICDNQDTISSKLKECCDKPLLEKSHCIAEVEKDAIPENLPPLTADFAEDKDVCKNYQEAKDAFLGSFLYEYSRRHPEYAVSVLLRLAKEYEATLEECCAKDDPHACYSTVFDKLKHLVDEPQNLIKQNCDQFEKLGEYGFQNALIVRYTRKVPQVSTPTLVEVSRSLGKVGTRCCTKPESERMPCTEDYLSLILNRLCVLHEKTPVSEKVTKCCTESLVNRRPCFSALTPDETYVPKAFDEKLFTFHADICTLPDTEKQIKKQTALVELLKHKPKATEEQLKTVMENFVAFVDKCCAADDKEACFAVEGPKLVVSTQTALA
Experimental: (§1) ELISA was performed using the DuoSet ELISA Ancillary Kit (R&D System, DY008). ELISA plates were coated with 1 μg/ml of human CDH17 His Tag (Sino biological, catalog number 11360-H08H), or BSA overnight. Excess unbound proteins were washed off by washing the plates three times with the wash buffer before blocking for 1 hour at room temperature. 100 μl CDH17 hybridoma supernatant was added in each well and incubated for 1 hour at room temperature. Excess unbound antibodies were washed off and 100 μl of 1:30000 diluted secondary antibody Goat anti-mouse IgG Fc-HRP (ab5870) was added to each well for another 1 hour. Plates were washed before the addition 50 μL of […] (color A and color B) according to manufacturer's protocol. The reactions were stopped using 25 μL of stop solution. Optical density at 450 nm of samples was measured by a microplate reader (PerkinElmer). All tested clones bound selectively to human CDH17 but not BSA.

[3] = molecular target: T1, human CDH17 His Tag (Homo sapiens, UniProt Q12864); assay: ELISA binding of hybridoma clones to human CDH17 protein; conditions: hybridoma supernatant; plate coated with 1 μg/ml antigen
T1 construct: His tag; purchased Sino biological 11360-H08H
Experimental: as §1

[4] = system: AsPC1 cells; assay: Indirect killing assay (cell internalization) of hybridoma supernatants; format: cell-based, human; conditions: hybridoma supernatant with Fab anti-mouse IgG Fc-MMAF 20 nM, in words
Experimental: Cell internalization activities of hybridoma supernatants were measured using an indirect killing assay in AsPC1 cells. The AsPC1 cells were seeded in 96 well plate at 8,000 cells/well with propidium iodide (abeam, Cat #ab14083) at 500 ng/mL and SPY650-DNA (Cytoskeleton, Inc., Cat #CYSC501) at 1:2000 dilution. Cells were incubated overnight at 37° C. in 5% CO2. The hybridoma supernatants from each hybridoma clone were diluted with hybridoma culture medium containing 500 ng/mL propidium iodide and 2000-fold diluted SPY650-DNA and mixed with Fab anti-mouse IgG Fc-MMAF conjugates with cleavable linker (Moradec, AM-202AF), then added to each well. The final concentrations of mouse IgG were roughly 10 nM, 3.33 nM, and 1.11 nM. The final concentration of the Fab anti-mouse IgG Fc-MMAF conjugates in each well was 20 nM. With the presence of secondary Fab-vc-MMAF, the internalized antibody/Fab-vc-MMAF conjugates complex will release the cytotoxic payload and kill the cells. Cytation5 (Agilent) was used to detect the viability of the cells in each well by imaging the plates every 8 h.
A purified anti-human CDH17 antibody was used as a positive control (Invitrogen, Cat #MA5-29135). A purified mouse IgG1 antibody was used as isotype control (Biolegend, Cat #400102).

B1: 17F3: anti-CDH17 antibody; SEQ ID NO 93 (heavy chain) and 94 (light chain) (antibody, listed as Homo sapiens)
heavy: EVQLVESGGGLVKSGGSLRLSCAASGFTFSSYSLKWVRQAPGKGLEWVSSISSSSGYIYYADSVKGRFTISRDNAKNSLYLQMNSLRAEDTAMYYCARAVSTIAARPGYYYYYMDVWGKGTLVTVSS[letters of human IgG1 constant region omitted]
light: DIQMTQSPSSVSASIGDRVTITCRASQDISTWFAWYQQKPGKAPKLLIYAASTLRSGVPSRFSGSGSGTDFTLTINSLQPEDFATYYCQQANSFPLTFGGGTKVEIKRTVAAPSVFIFPPSDEQLKSGTASVVCLLNNFYPREAKVQWKVDNALQSGNSQESVTEQDSKDSTYSLSSTLTLSKADYEKHKVYACEVTHQGLSSPVTKSFNRGEC
With B1 the “binding profile to CDH17 positive versus negative cells” value [1] was “enhanced binding profile to AsPC1 cells and GP2d cells compared to SW480 cells”, the “Protein binding (BSA)” value [2] was 0.0425 OD450 and the “Protein binding (human CDH17)” value [3] was 1.663 OD450. For the same molecule, the cell internalization activity [4] was “capable of internalizing into CDH17 positive cell line”.
